This is one part of the list.
Each sequence was assayed against T1, OsWOX13 (Oryza sativa, UniProt Q5QMM3 1-267) (assay: protein-binding microarray (RPBM); PBS, 2% BSA, 51.3 ng/ul salmon testes DNA, 50 uM zinc acetate, 200 nM TF, 25 C, 1 h; high values mean tight binding). Conditions: protein: recombinant; tags: N-terminal polyhistidine and DsRed monomer fusion (pET32a); label: CyDye5-dUTP incorporated in the synthesized complementary strand; 3' TTTTT single-stranded linker to array surface; dsDNA, one strand shown.
T1 sequence: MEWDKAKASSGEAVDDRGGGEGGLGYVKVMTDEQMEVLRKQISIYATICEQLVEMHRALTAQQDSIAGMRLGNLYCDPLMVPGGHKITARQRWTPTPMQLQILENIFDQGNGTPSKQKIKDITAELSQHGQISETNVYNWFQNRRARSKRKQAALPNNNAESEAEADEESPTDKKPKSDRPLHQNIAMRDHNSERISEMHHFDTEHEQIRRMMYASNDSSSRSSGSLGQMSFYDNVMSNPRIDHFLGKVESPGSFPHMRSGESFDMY
Procedure, shortened: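 In PBS with 2% BSA, salmon testes DNA and 50 µM zinc acetate, 200 nM protein was incubated on a custom Agilent array at 25 °C for 1 h and then washed off. The array had been made double-stranded by primer extension with Cy5-dUTP and blocked with 2% BSA. The proteins were transcription factors fused N-terminally to polyhistidine and DsRed, expressed in E. coli BL21-CodonPlus and purified on Ni–NTA. The binding signal is per-feature fluorescence intensity (arbitrary units) from an Axon 4000B scanner.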

Sequence | binding signal
TTATGATTTATTAACTAGTAGTAGATTTGAAGTTCTTAAGCGGAGTCACCTAGTGCAG | 16400 fluorescence intensity (a.u.)
AGAAAATATGGTCACATATTTGATTGGCAATTGCAAAGGACGGAGTCACCTAGTGCAG | 23900 fluorescence intensity (a.u.)
AGAGATCGATCGATTAATTAGCAACAAGCCAACGACAAGCCGGAGTCACCTAGTGCAG | 4950 fluorescence intensity (a.u.)
ATTAATCTATAATTATAGAATGTTTATTGTAGCATCACATCGGAGTCACCTAGTGCAG | 20400 fluorescence intensity (a.u.)
GGAAGCAAATTACAGAGATTAGGCACCACAAAATTGGTGGCGGAGTCACCTAGTGCAG | 3840 fluorescence intensity (a.u.)
TATTAATTTTCATCGATCTTAGTAAGTATCCTATTTACCTCGGAGTCACCTAGTGCAG | 7750 fluorescence intensity (a.u.)
GTCATATCAATAATTTATTATGTTTACCTAGAGCATGTCTCGGAGTCACCTAGTGCAG | 12300 fluorescence intensity (a.u.)
TATTGATGTTTCAGGTTGATAGAATCAGTGATACCCTGCACGGAGTCACCTAGTGCAG | 4280 fluorescence intensity (a.u.)
CAACTAATTTAACCACTGTTTAATGCTTCTTCTGCTAACTCGGAGTCACCTAGTGCAG | 24800 fluorescence intensity (a.u.)
CATAAATCAGGAATCATGACCCATGTTGTAAACTTCAAGACGGAGTCACCTAGTGCAG | 3860 fluorescence intensity (a.u.)
CTGTGTAATTAGTTTATTTTGTCTATATTTAATACTCTATCGGAGTCACCTAGTGCAG | 22800 fluorescence intensity (a.u.)
AGAAATTGACGCCTTGAAATCTGCAATTAATGCAATTTTGCGGAGTCACCTAGTGCAG | 33000 fluorescence intensity (a.u.)
CATGATAAATTCATCATGGTTTCTTCGGGAAGCATGATGGCGGAGTCACCTAGTGCAG | 3920 fluorescence intensity (a.u.)
ATTGATGTAACTAGATTTATCATCAAACAAACTACTATCACGGAGTCACCTAGTGCAG | 15400 fluorescence intensity (a.u.)
GTGCTGATAAACACATAATTACTATGAAGCCATTGGAGTTCGGAGTCACCTAGTGCAG | 9150 fluorescence intensity (a.u.)
AGGTTCCAGTTGATTAGCTTTGGCAAAATATAACTGATCCCGGAGTCACCTAGTGCAG | 9370 fluorescence intensity (a.u.)
CTCAATCACAGAATCATATTGTTGACTGAAGTATCTTGATCGGAGTCACCTAGTGCAG | 19700 fluorescence intensity (a.u.)
AAGTTTGTTGATTGTGCTAAACTATGTCATTTGAAGTTGTCGGAGTCACCTAGTGCAG | 10200 fluorescence intensity (a.u.)
GACTTTATTTATAATCATTATCCATCAAAACTTTAGAGAACGGAGTCACCTAGTGCAG | 12800 fluorescence intensity (a.u.)
ATAGAGGAGATTGAGAAGATACGCAAAACGAGATGAGCTACGGAGTCACCTAGTGCAG | 5110 fluorescence intensity (a.u.)
GGCAAATCAATCGAATCGATCCCCTCTCATCCGCTCGCGGCGGAGTCACCTAGTGCAG | 6560 fluorescence intensity (a.u.)
GAAGGTGGTTGATTAAACATGGTAATAGCACTAGGAGGTTCGGAGTCACCTAGTGCAG | 4270 fluorescence intensity (a.u.)
TTGAGTAAATTGGTGTTGCTGCTTCTTCCTCCTCCGATCACGGAGTCACCTAGTGCAG | 15700 fluorescence intensity (a.u.)
AATTTACCCGGTCCAAATTGAAAAGATAGATTTAAAGGTGCGGAGTCACCTAGTGCAG | 3840 fluorescence intensity (a.u.)
ATCTCTCCAGTCTGTCTAATAATCAAAATCAAACCAGACCCGGAGTCACCTAGTGCAG | 6180 fluorescence intensity (a.u.)
ATAGAATAGAATAGATAGATAGATAGATAGTAGATAGATCCGGAGTCACCTAGTGCAG | 7420 fluorescence intensity (a.u.)
ATATAATAGCTAATCAAACACTAGTCCGAAGACGTAGTATCGGAGTCACCTAGTGCAG | 21700 fluorescence intensity (a.u.)

Sequence | binding signal
CCTGACAGATATTTATATAAATCGCTGCTGTCTTCTCAAACGGAGTCACCTAGTGCAG | 36000 fluorescence intensity (a.u.)
GTAGTAGGATTGGTTCTCATAATTATCACATAATTTTCAACGGAGTCACCTAGTGCAG | 9810 fluorescence intensity (a.u.)
AAAACGATTATTGAAAGGCTCCTATTGGATGGCCTAATCACGGAGTCACCTAGTGCAG | 3500 fluorescence intensity (a.u.)
TAGTTTCATCAAATCAATAATTAAATATATTTTCATAATACGGAGTCACCTAGTGCAG | 8900 fluorescence intensity (a.u.)
TTCTCCAATTGTAATCAGTCATCGCTTGTCCAATAATATTCGGAGTCACCTAGTGCAG | 4440 fluorescence intensity (a.u.)
TTGATTTTGTTAAAATTTATATCACTATTGAAACGTCCACCGGAGTCACCTAGTGCAG | 10600 fluorescence intensity (a.u.)
TTAAAATAGTTAATACTTAATTAATCATGCACTAATTTTACGGAGTCACCTAGTGCAG | 3380 fluorescence intensity (a.u.)
ATGCATATTATTGTGGTTGATTGATGAATTTTAAACTCAGCGGAGTCACCTAGTGCAG | 47800 fluorescence intensity (a.u.)
ATGTAATTTGCAAAACAATAGTGTTCCCCTTTAATTTTGTCGGAGTCACCTAGTGCAG | 21300 fluorescence intensity (a.u.)
ATTAAATTACATACGTATTACATATGCAATTTATGTAATCCGGAGTCACCTAGTGCAG | 20000 fluorescence intensity (a.u.)
AATGAGTTATTAGATTGGATATAAATGAATTGGAGCTAGTCGGAGTCACCTAGTGCAG | 21800 fluorescence intensity (a.u.)
CAATAAAACCAACAGATTAATTAGGAAGATAAACAGGGAGCGGAGTCACCTAGTGCAG | 6240 fluorescence intensity (a.u.)
ATTAATAATGTATAATTTATTTTAGTGGTATTAATGTTGTCGGAGTCACCTAGTGCAG | 22400 fluorescence intensity (a.u.)
TATCATGACAGGCAAATCAGAAGCCACAAATTAAGATGCACGGAGTCACCTAGTGCAG | 12100 fluorescence intensity (a.u.)
GGAGAAACAGGTAAATTTCCTTTACATCGTTTTACATGACCGGAGTCACCTAGTGCAG | 3880 fluorescence intensity (a.u.)
TTTTCTTCAAATTGACTTGGACCAATGATGAAACACGTAACGGAGTCACCTAGTGCAG | 3600 fluorescence intensity (a.u.)
AATTAATTTGTTCCTTTCGTCAGGGCTTGAGTCATGGAGTCGGAGTCACCTAGTGCAG | 22600 fluorescence intensity (a.u.)
GACTAAATTGCCCCTGAAGCATTTTCATCTCTACTCCTCCCGGAGTCACCTAGTGCAG | 14600 fluorescence intensity (a.u.)
ATGCAAATTTAAATTCAACTTCTACTTCTCACAACGAAAACGGAGTCACCTAGTGCAG | 5600 fluorescence intensity (a.u.)
CATACTGACCAAGTTTTGACAGAATGACAGGTGGGGCCCACGGAGTCACCTAGTGCAG | 4310 fluorescence intensity (a.u.)
CAGATGTAATTTATAGTTAATGTTTTGAAAGTTTAACGATCGGAGTCACCTAGTGCAG | 24200 fluorescence intensity (a.u.)
TAATAATTGCTAGTGGGTAATGATGTGACACACTTGCATGCGGAGTCACCTAGTGCAG | 28700 fluorescence intensity (a.u.)
TTCAAATTTAATGCAAAGATTAAGTTGATGAGAAACGACGCGGAGTCACCTAGTGCAG | 6640 fluorescence intensity (a.u.)
TCCCATAAATAAATTAACGGAGAGAGCGGAGCGAACGCAGCGGAGTCACCTAGTGCAG | 3640 fluorescence intensity (a.u.)
TATATATATATATATATATATATATGAAAGTTTTATTCATCGGAGTCACCTAGTGCAG | 13400 fluorescence intensity (a.u.)
ATAATAATTGATAGGTAACCATGATTATCGATAAAACCATCGGAGTCACCTAGTGCAG | 59000 fluorescence intensity (a.u.)
AAAATCAATTAACATTTTAATTTTCCACCTTCCATACCTACGGAGTCACCTAGTGCAG | 25400 fluorescence intensity (a.u.)
